{"source": "the supplement of paper PMC10338343", "note": "± gives the standard deviation. This is a selection; strong and weak results do not stand in their true shares."}
{"test_system": "MIWI (PIWIL1) piRISC loaded with piRNA #1 (30 nt)", "assay": "pre-steady-state target cleavage rate (min^-1); MIWI and MILI are mouse PIWI proteins and EfPiwi is from a freshwater sponge; tags in brackets are library labels; higher = faster piRNA-guided slicing of the target", "details": "guide: piRNA #1 5'p-UGAGGUAGUAGGUUGUAUAGUAUCCAGAGG; auxiliary factor: 500 nM mouse GTSF1", "how_it_was_run": "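Using HEPES–potassium acetate buffer at 33 °C, 1 nM active affinity-purified piRISC with a single synthetic guide was mixed with 0.1 nM transcribed, DNA-blocked target RNA library for 0–8 or 0–960 min, with or without 500 nM GTSF1 partner protein. Uncleaved targets were sequenced and normalised to depth and to weakly complementary targets, and three trials were pooled with k3 capped at 0.0001 min^-1. A burst-and-steady-state fit gave the pre-steady-state cleavage rate.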"}
{"sequence": "GCUCUGGAUACUAUACAAACCUACUACCUCA", "pre-steady-state target cleavage rate": "0.018 ± 0.0064"}
{"sequence": "GGACAGGAUACUAUACAACCUACUACCUGA", "pre-steady-state target cleavage rate": "0.571 ± 0.098"}
{"sequence": "GGAGACCUAUGUAUAGAACCUUCUACCUCA", "pre-steady-state target cleavage rate": "0.0033 ± 0.0012"}
{"sequence": "GCUCUGGAUACUAAACAACCUAGUACCUCA", "pre-steady-state target cleavage rate": "0.375 ± 0.06"}
{"sequence": "GCUCUGGAUUGAAUACAACCUACUACCUCA", "pre-steady-state target cleavage rate": "0.491 ± 0.05"}
{"sequence": "GGUCUGGAUACUAAAGAACCUACUACCUCA", "pre-steady-state target cleavage rate": "1.24 ± 0.098"}
{"sequence": "GGAGACCUAUCUAAACAACCUAGUACCUCA", "pre-steady-state target cleavage rate": "0.00985 ± 0.0029"}
{"sequence": "GGAGACGAUACUAUACAACGUUCUACCUCA", "pre-steady-state target cleavage rate": "0.0938 ± 0.0099"}
{"sequence": "GGAGACCUAACUAUACAACCUACUACCGUCA", "pre-steady-state target cleavage rate": "0.718 ± 0.053"}
{"sequence": "GGAGACCUAACUAUAGCAACCUACUACCUCA", "pre-steady-state target cleavage rate": "0.00843 ± 0.0038"}
{"sequence": "CCACUGGAUUCUAUACAACCUACUACCUCA", "pre-steady-state target cleavage rate": "2.08 ± 0.12"}
{"sequence": "GGAGUGGAAUGUAUACAACCUACUACCUCA", "pre-steady-state target cleavage rate": "0.345 ± 0.043"}
{"sequence": "GGUCUGGAUACAAUACAACCUACUAGCUCA", "pre-steady-state target cleavage rate": "0.37 ± 0.056"}
{"sequence": "GGACUGGAUACUAUACAAGCUAGUACCUCA", "pre-steady-state target cleavage rate": "0.287 ± 0.061"}
{"sequence": "CGUCUGGAUACUAUACAACCAACUACCUCA", "pre-steady-state target cleavage rate": "0.113 ± 0.012"}
{"sequence": "GGAGAGGAUACUAUACUACGUACUACCUCA", "pre-steady-state target cleavage rate": "0.12 ± 0.019"}
{"sequence": "GGAGAGGAUACUAUACAACUUACUACCUCA", "pre-steady-state target cleavage rate": "0.309 ± 0.021"}
{"sequence": "CCUCUGGAUACUUUACAAGCUACUACCUCA", "pre-steady-state target cleavage rate": "1.41 ± 0.076"}
{"sequence": "GGAGACCUAACUAUACAACCUUGUACCUCA", "pre-steady-state target cleavage rate": "0.00406 ± 0.0034"}
{"sequence": "GCUCUGGAUAGUAUACAACGUACUACCUCA", "pre-steady-state target cleavage rate": "0.539 ± 0.039"}
{"sequence": "GGAGACGUUACUAUACAACCUACUUCCUCA", "pre-steady-state target cleavage rate": "0.212 ± 0.036"}
{"sequence": "GGAGACCAUAGUAUACUACCUACUACCUCA", "pre-steady-state target cleavage rate": "0.13 ± 0.025"}
{"sequence": "CCUGUGGAUACUAUACAACCUACUACCACA", "pre-steady-state target cleavage rate": "0.357 ± 0.055"}
{"sequence": "GGAGUGGAUACUAAUACAACCUACUACCUCA", "pre-steady-state target cleavage rate": "1.4 ± 0.1"}
